# According to PubChem BioAssay AID485313 (National Center for Advancing Translational Sciences (NCATS), 2010):
# Among all 320,000 compounds or so, about 7,600 (2.4%) were called active. Inconclusive means that the source gave no clear call. Such entries were picked first, then a sample of the others. The call rests on the fitted dose curve; in most records, active means well fitted activation curve with a large enough effect; inconclusive means small, poorly fitted or top-dose-only effect; inactive means no such curve, though single readings can be large or run the other way. Potencies of inconclusive entries are left out as doubtful fits.
# Assay: qHTS Assay for NPC1 Promoter Activators; further: nearly all actives have a fitted effect of over 60% in size;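 on activation: reporter is driven by a mutant NPC1 promoter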
# Settings: Huh7 NPC1 promoter luciferase reporter, 24 h; series mostly up to 9.22 µM
# Procedure, shortened: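 Luciferase expression driven by the NPC1 promoter was measured in stably transfected Huh7 cells after a 24 h compound incubation, using a luciferase reagent and a luminescence read.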
# Potency means the concentration at half of the fitted maximal effect; tags describe the fitted curve by direction and shape.
row,Structure (SMILES),Potency
1,CCCc1cc(C(=O)NC2CCCC2)no1,"inconclusive [activator, partial curve]"
2,COc1ccc(-n2nc(C(=O)NCC(=O)NCCCN3CC(C)CC(C)C3)c3ccccc3c2=O)cc1Cl (centres undefined),inactive
3,COc1ccc(NS(=O)(=O)c2cccc(C(=O)N/N=C(\C)c3cccnc3)c2)cc1,inactive
4,COC(=O)c1ccnc(SCC(=O)c2ccccc2)c1,active: 3.16 µM
5,CCc1ccc2oc(-c3ccc(OC)cc3)cc(=Nc3c(C)n(C)n(-c4ccccc4)c3=O)c2c1,"inconclusive [activator, single point]"
6,COc1ccc(C2=NN(C(C)=O)C(c3ccccc3)C2)cc1 (centres undefined),"inconclusive [activator, partial curve]"
7,Cc1cccc(N2CCN(C(=O)c3ccccc3OCc3c(C)noc3C)CC2)c1C,inactive
8,COc1cc(C)ccc1OCc1cc(C(=O)N(C)CCCN2CCOCC2)no1,active: 2.82 µM
9,CCCC(=O)Nc1ccc(C#Cc2ccccc2)cc1,active: 1.58 µM
10,O=C(COc1ccc(F)cc1)c1c(O)cc(O)cc1O,"inconclusive [activator, single point]"
11,COc1ccc(C(CNC(=O)c2ccco2)N2CCOCC2)cc1 (centres undefined),inactive
12,COc1ccccc1C(=O)Nc1c(-c2ccccc2)nc2ccccn12,inactive
13,Cc1ccc(NC(=O)Nc2ccc3c(c2)OCO3)c(Br)c1,"inconclusive [activator, single point]"
14,CC(C)Oc1cccc(C(=O)C2CCCN(C(=O)CCc3cnn(C)c3)C2)c1 (centres undefined),"inconclusive [activator, partial curve]"
15,CC(=O)c1sc2nc(-c3ccco3)ccc2c1N,"inconclusive [activator, single point]"
16,O=C(Nc1nnc(-c2ccccc2)s1)c1ccccc1F,active: 2.51 µM
17,Clc1ccc(-c2ccc(CNCc3ccccn3)o2)cc1,"inconclusive [activator, single point]"
18,O=[N+]([O-])c1ccc2nc(/C=C/c3ccc(Cl)cc3)[nH]c2c1,"inconclusive [activator, partial curve]"
19,COc1ccc(NS(=O)(=O)c2cccc(C(=O)NNC(=O)c3cc(S(N)(=O)=O)ccc3OC)c2)cc1,inactive
20,O=C(NC(=O)c1ccccc1O)c1ccc2c(c1)CCO2,active: 1.41 µM
21,CCC(C)NC(=O)CN(c1cc(Cl)ccc1OC)S(C)(=O)=O (centres undefined),inactive
22,CC(C)Oc1ccc(C(=O)Nc2nc3ccccc3[nH]2)cc1,"inconclusive [activator, partial curve]"
23,CCC(C)NC(=O)Cc1c(C)c2cc3c(cc2oc1=O)OC(C)(C)CC3 (centres undefined),"inconclusive [activator, partial curve]"
24,Cc1cccc2cc(/C=N/NC(=O)CN3CCCCC3)c(Cl)nc12,inactive
25,COc1ccc(/C=N\NS(=O)(=O)c2ccc(C)cc2)cc1COc1ccccc1[N+](=O)[O-],inactive

row,Structure (SMILES),Potency
1,O=C(NC(=O)N1CCN(c2cccc(Cl)c2)CC1)c1ccc(Cl)cc1,inactive
2,CN(C)c1ccc(-c2ccc3c(=O)c4ccccc4n(C)c3c2)cn1,active: 2.51 µM
3,COc1ccc(NC(=O)c2cccnc2)c([N+](=O)[O-])c1,inactive
4,COc1ccc(C(=O)Nc2ccccc2C(N)=O)cc1,active: 3.16 µM
5,O=C(/C(C=Nc1ccc(Br)cc1)=C(/O)c1ccco1)C(F)(F)F,"inconclusive [activator, single point]"
6,Cc1cc(C)c2c(N)c(C(=O)NCC3CCCCC3)sc2n1,"inconclusive [activator, partial curve]"
7,O=C(N/N=C/c1ccc2c(c1)OCO2)c1ccc2c(c1)OCCO2,"inconclusive [activator, single point]"
8,Cc1cccc(NC(=O)CSc2nnc(-c3n[nH]c4ccccc34)o2)c1,inactive
9,COc1ccc(NC(=O)Nc2ccc(OC)cc2)cc1,active: 2.82 µM
10,CN(c1ccccc1C(=O)Nc1ccc2c(c1)OCCO2)S(C)(=O)=O,inactive
11,O=C(NC(=S)Nc1cccc2cccnc12)c1ccccc1,"inconclusive [activator, single point]"
12,O=C(/C=C/c1ccc(N2CCCCC2)c([N+](=O)[O-])c1)c1ccc(O)cc1,"inconclusive [activator, single point]"
13,CCOc1cccc(-c2csc(C3COc4ccccc4O3)n2)c1 (centres undefined),"inconclusive [activator, single point]"
14,COc1cc(OC)cc(C(=O)N=c2sc3ccccc3n2C)c1,"inconclusive [activator, single point]"
15,Cc1ccc(NC(=S)N(CCN(C)C)C(C)c2ccco2)cc1Cl (centres undefined),"inconclusive [activator, single point]"
16,CCN(CC)c1ccc(NC(=O)C2CC3CCC2C3)cc1 (centres undefined),"inconclusive [activator, partial curve]"
17,C=CCOn1c(=O)c(-c2cc3ccccc3o2)[n+]([O-])c2ccccc21,"inconclusive [activator, partial curve]"
18,O=c1oc2ccccc2cc1-c1nc2c(s1)CCCC2,"inconclusive [activator, partial curve, poor fit]"
19,CCN(C(=O)c1c(C)noc1C)c1c(N)n(Cc2ccccc2)c(=O)[nH]c1=O,inactive
20,O=C(/C=C/c1cccc([N+](=O)[O-])c1)Nc1ccccn1,"inconclusive [activator, partial curve]"
21,Cc1ccc(-c2csc(-c3c[nH]c4ccccc34)n2)cc1,active: 1 µM
22,O=C(CCc1nnc(-c2ccsc2)o1)N1CCc2c(Cl)cccc2C1,inactive
23,COc1ccc(N2CCN(c3nccs3)CC2)cc1,"inconclusive [activator, partial curve]"
24,Cc1[nH]c2ccccc2c1C(=O)C(=O)Nc1ccc2c(c1)OCO2,"inconclusive [activator, partial curve]"
